# Out of some 340,000 compounds screened, about 12,000 (3.5%) were called active. The shares of active, inactive and inconclusive entries below differ from those in the screen. The call rests on the fitted dose curve; in most records, active means well fitted inhibition curve with a large enough effect; inconclusive means small, poorly fitted or top-dose-only effect, or another doubt; inactive means no such curve, though single readings can be large or run the other way. Potencies beside an inconclusive call are fits to weak or partial responses and may not hold up.
# Assay: qHTS Assay for Inhibitors of Hepatitis C Virus (HCV)
# Settings: Huh7.5.1 HCVcc-Cre (HCVcc is cell-culture hepatitis C virus) infection, luciferase reporter, 44 h; activity change, negative = inhibition: at 41.8 µM (top of the series) unless noted
# Method in brief: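 Seed cells (1,000/well) for 4 h; treat with compound and infect with HCVcc-Cre, moi about 0.5. Incubate 44 h, then detect luciferase activity.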
# On the % scale 0 is the no-effect control and ±100 the full control effect; potency means the concentration at half of the fitted maximal effect; tags describe the fitted curve by direction and shape.
SMILES,Potency,"activity change, negative = inhibition"
O=C(Nc1ccc(Cc2ccncc2)cc1)C1CCC(N2C(=O)C3C4C=CC(C4)C3C2=O)CC1 (stereo not drawn),active: 8.91 µM,–
Cc1noc(C)c1C(=O)OCC(=O)c1c(N)n(CC(C)C)c(=O)n(C)c1=O,"inconclusive: 10 µM [inhibitor, partial curve]",–
Cc1cccc(NC(=O)/C(=C\c2cccs2)NC(=O)c2ccccc2)c1,–,inactive: 7.16%
CCOC(=O)c1ccc(N2Cc3ccccc3C2)cc1O,"inconclusive: 14.1 µM [inhibitor, single point]",–
CCc1c(C(=O)Nc2ccc(OC)c(Cl)c2)[nH]c(C)c1C(C)=O,"inconclusive: 2.51 µM [inhibitor, full curve]",–
C#CCOCCOCCOCCNc1nc(N2CCN(C(=O)[C@H]([C@@H](C)CC)n3cc(CCCCN)nn3)CC2)nc(N2CCN(C(=O)[C@H]([C@@H](C)CC)n3cc(CCCN=C(N)N)nn3)CC2)n1,–,inactive: 2.26%
Cc1ccc(C(=O)CSc2nc(O)cc(=O)[nH]2)cc1C,–,inactive: 11.2%
CCOC(=O)c1ccc(NC(=S)Nc2cc(C)cc(C)n2)cc1,"inconclusive: 5.62 µM [inhibitor, single point]",–
CCCCCC(=O)Nc1ccc(-c2cn3cccnc3n2)cc1,"inconclusive: 31.6 µM [inhibitor, single point]",–
Nc1c(C(=O)c2cccs2)oc2ccccc12,"inconclusive: 31.6 µM [inhibitor, single point]",–
CN(C)/C=C(\C#N)C(=O)c1cccnc1Oc1ccc(F)cc1F,"inconclusive: 4.47 µM [inhibitor, single point]",–
C/C(=N\NC(=O)C1(C)CC1(Br)Br)c1ccc(NC(=O)C2CCC2)cc1 (stereo not drawn),"inconclusive: 31.6 µM [inhibitor, single point]",–
N#Cc1ccsc1NC(=O)COC(=O)c1cc2ccccc2cc1O,"inconclusive: 5.62 µM [inhibitor, single point]",–
O=C(NCC1CCCN1S(=O)(=O)c1cccs1)c1cccc(Cl)c1 (stereo not drawn),"inconclusive: 5.62 µM [inhibitor, single point]",–
Cc1ccccc1-c1nc(CS(=O)(=O)CC(=O)N2CCOCC2)c(C)o1,–,inactive: -1.57%
N#Cc1cc2c(nc1Cl)CCC2,–,inactive: 11.6%
CCN(CC)S(=O)(=O)c1ccc(C(=O)Nc2ccc(C(F)(F)F)n(C)c2=O)cc1,"inconclusive: 2.24 µM [inhibitor, single point]",–
CCN1CCc2c(sc(NC(=O)c3ccc(C(=O)c4ccccc4)cc3)c2C(N)=O)C1,"inconclusive: 22.4 µM [inhibitor, single point]",–
CC1(C)Cc2c(sc3[nH]c(=S)[nH]c(=O)c23)CO1,"inconclusive: 22.4 µM [inhibitor, single point]",–
O=C(Nc1ccccc1)OC1CCCCc2cccnc21 (stereo not drawn),–,inactive: 0.737%
CCOC(=O)c1c(/N=C/N(C)C)sc(/C=N/Nc2ccccc2)c1-c1ccc(Cl)cc1,"inconclusive: 5.01 µM [inhibitor, partial curve]",–
Nc1ccc(-c2nc3ccccc3s2)cn1,active: 25.1 µM,–
CC(NC(=O)CCSc1nc(-c2ccco2)cc(C(F)(F)F)n1)c1ccccc1 (stereo not drawn),"inconclusive: 15.8 µM [inhibitor, single point]",–

SMILES,Potency,"activity change, negative = inhibition"
CCOC(=O)c1cccc(NC(=O)c2ccc(F)cc2F)c1,"inconclusive: 31.6 µM [inhibitor, single point]",–
Cc1ccc(-c2noc(CC(=O)c3ccc([N+](=O)[O-])cc3)n2)cc1,"inconclusive: 31.6 µM [inhibitor, single point]",–
COc1ccc(-c2nnc(C(C)Nc3cccc(C(=O)NC4CC4)c3)o2)cc1 (stereo not drawn),–,inactive: -1.01%
COc1ccc2c(c1)c(CC(=O)Nc1nnc(C3CC3)s1)c(C)n2C(=O)c1ccc(Cl)cc1,–,inactive: 13.9%
Cc1ccc(NC(=O)c2ccccc2NC(=O)c2cccnc2)cc1,"inconclusive: 2.82 µM [inhibitor, single point]",–
COc1ccccc1NC(=O)Nc1ccc(CC#N)cc1,"inconclusive: 10 µM [inhibitor, partial curve]",–
COc1ccc(C2CC(=O)Nc3n[nH]c(-c4ccccc4)c32)cc1OC (stereo not drawn),"inconclusive: 3.16 µM [inhibitor, partial curve]",–
Cc1cc(Nc2cccc(Cl)c2)nc(-c2ccccc2O)n1,"inconclusive: 11.2 µM [inhibitor, partial curve]",–
O=C(C1=C[C@H](C2CC2)C[C@H](OCc2ccc(CO)cc2)O1)N1CCN(Cc2ccccc2)CC1,"inconclusive: 31.6 µM [inhibitor, single point]",–
O=C(NCc1ccccn1)Nc1ccc(Cl)cc1Cl,–,inactive: 8.9%
O=C(NCC(c1cccs1)N1CCOCC1)C1CCN(S(=O)(=O)c2c(Cl)cccc2Cl)CC1 (stereo not drawn),"inconclusive: 11.2 µM [inhibitor, partial curve]",–
CC(=O)Nc1ccc(Nc2nc(C)nc3c2oc2ccccc23)cc1,"inconclusive: 11.2 µM [inhibitor, partial curve]",–
N#CC(c1ccc(F)cc1)c1ccc(C(=O)c2ccccc2)cc1 (stereo not drawn),"inconclusive: 22.4 µM [inhibitor, single point]",–
CC(NC(=O)COC(=O)c1cc([N+](=O)[O-])ccc1N1CCOCC1)c1ccc(F)cc1 (stereo not drawn),"inconclusive: 7.08 µM [inhibitor, partial curve]",–
CC1CCN(CCc2nc3cc(NC(=O)COc4ccc(Cl)cc4)ccc3n2C)CC1,active: 11.2 µM,–
Cc1cc2cc(C)c(NCCNC(=O)c3cccs3)nc2cc1C,"inconclusive: 31.6 µM [inhibitor, single point]",–
CC(=O)Nc1ccc(C(=O)N/N=C/c2ccccc2OC(=O)c2ccc(Cl)cc2)cc1,"inconclusive: 15.8 µM [inhibitor, single point]",–
N#Cc1ccccc1N/C=C/C(=O)c1ccc(Cl)cc1,"inconclusive: 31.6 µM [inhibitor, single point]",–
CCOc1ncccc1C(=O)N1CCCSC1=Nc1ccc(C(C)=O)cc1,–,inactive: 8.82%
COc1cccc(C2=CC(c3ccc(OC)c(OC)c3OC)n3nnnc3N2)c1 (stereo not drawn),"inconclusive: 31.6 µM [inhibitor, single point]",–
CC1=NN(c2nc(N)nc(/C(C#N)=C/c3ccc([N+](=O)[O-])o3)n2)C(C)(C)C1,active: 8.91 µM,–
CCN(CC)C(=O)c1sc(NC(=O)c2ccc(Br)o2)c(C(=O)OC)c1C,"inconclusive: 12.6 µM [inhibitor, single point]",–
CCCNC(=O)c1ccc2c(=O)c(O)c(-c3cccc(Br)c3)[nH]c2c1,"inconclusive: 1.26 µM [inhibitor, partial curve]",–

SMILES,Potency,"activity change, negative = inhibition"
Cc1cccc(OCC(=O)Nc2cc(C)c(C)cc2O)c1,–,inactive: 1.77%
CC(=O)NC(Cc1c[nH]c2ccccc12)C(=O)NCc1ccc2c(c1)OCO2 (stereo not drawn),"inconclusive: 11.2 µM [inhibitor, single point]",–
O=C(NCC1(N2CCOCC2)CCCCC1)c1cccc(S(=O)(=O)N2CCc3ccccc3C2)c1,"inconclusive: 22.4 µM [inhibitor, single point]",–
Cc1ccc(C)c(N2CCN(C(=O)c3ccc(CS(=O)Cc4cccc(Cl)c4)o3)CC2)c1 (stereo not drawn),–,inactive: -10.7%
Cc1ccc(NC(=S)NC(NC(=O)c2ccco2)C(Cl)(Cl)Cl)cc1 (stereo not drawn),"inconclusive: 31.6 µM [inhibitor, single point]",–
N#Cc1cc2c(nc1SCC(O)CS(=O)(=O)Cc1ccc(Cl)cc1)CCCC2 (stereo not drawn),"inconclusive: 6.31 µM [inhibitor, partial curve]",–
CC(=O)c1cccc(CN2CCCC(CCC(=O)NCc3ccc(C)o3)C2)c1 (stereo not drawn),"inconclusive: 31.6 µM [inhibitor, single point]",–
O=C(c1ccc(COc2ccccc2Br)cc1)N1CCCCCC1,"inconclusive: 10 µM [inhibitor, partial curve]",–
Cc1nn2c([nH]c(=O)c3ccccc32)c1C=O,–,inactive: 31.4%
CC(C)N(c1ccccc1)c1ccc(NC(=O)CCl)cc1,"inconclusive: 0.562 µM [inhibitor, full curve, poor fit]",–
CCN(CC)CCNC(=O)c1ccc(NC(=O)c2cccc(S(=O)(=O)N3c4ccccc4CC3C)c2)cc1 (stereo not drawn),active: 11.2 µM,–
CCN(CC)C(=O)CSc1ncnc2c1cnn2-c1ccccc1,"inconclusive: 11.2 µM [inhibitor, single point]",–
Cc1ncc(N=Nc2ccc(F)cc2)c(-c2ccc(Cl)cc2)n1,–,inactive: 9.25%
O=C(COC(=O)CSc1ccc(Cl)cc1)Nc1ccccc1,active: 14.1 µM,–
CC1CCCC(NC(=O)C2CCN(S(=O)(=O)N3CCCCCC3)CC2)C1C (stereo not drawn),–,inconclusive: -60.7% [inhibitor] [at 0.335 µM]
CCN(C(=O)COC(=O)c1n[nH]c2ccccc12)c1ccccc1,"inconclusive: 31.6 µM [inhibitor, single point]",–
Cc1cnc(C(=O)Nc2ccccc2-c2ccc(C)o2)cn1,active: 7.94 µM,–
C[C@H]1C=C(C(=O)NCc2ccccc2)O[C@@H](OCc2ccc(CO)cc2)C1,"inconclusive: 5.62 µM [inhibitor, single point]",–
CC(=O)c1ccc(Sc2ccccc2)c([N+](=O)[O-])c1,"inconclusive: 35.5 µM [inhibitor, single point]",–
COc1ccc(-c2cc3c(=O)n(CC(=O)NCCCN4CCC(Cc5ccccc5)CC4)ncn3n2)cc1,"inconclusive: 2.24 µM [inhibitor, full curve]",–
COCCOc1cc(Nc2nnc(C(F)(F)F)s2)c(Cl)cc1Cl,"inconclusive: 12.6 µM [inhibitor, single point]",–
Cc1ccc(F)cc1NC(=O)C1CCN(c2cnccn2)CC1,"inconclusive: 3.16 µM [inhibitor, single point]",–

# From PubChem BioAssay AID651820 (National Center for Advancing Translational Sciences (NCATS), 2012)
